# The supplement of paper PMC10126150
# Sequences with one replicate were seen in a single cluster, so their values are uncertain.
# Test system: ATP
# Assay: switch fluorescence ratio, 500 uM ATP over buffer (Cy3 cluster intensity, sum of 5 cycles each) (fold (ratio)); higher = stronger signal-on switching upon ATP binding; sequences stand for … in TCGTCGGCAGCGTCAGATGTGTATAAGAGACAGTTTTTTTTTTTTTTTTTTTTTTTTT…TC
# Conditions: aptamer strand: ATP DNA aptamer (quencher-CACCTGGGGGAGTATTGCGGAGGAAGG + anchor), 100 nM annealed; ATP concentration: 500 uM; one replicate
# How it was run: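 Imaging in selection buffer was followed by imaging after 15 min with 500 uM ATP at 22 °C, for Cy3-labelled switching-strand clusters annealed to 100 nM quencher-labelled ATP aptamer on a modified Illumina MiSeq flow-cell. Five of these buffer/ATP cycles ran, separated by NaOH stripping and re-annealing. The fluorescence ratio per cluster is summed target-cycle over summed buffer-cycle Cy3 intensity, averaged per switch-domain sequence; clusters outside 100-1000 RFU were removed.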
# 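Further: ATP exposure 15 min at 22 °C before imaging.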
row,Sequence,switch fluorescence ratio
1,AATAGTGCCG,0.925
2,AACTCATTGC,1.07
3,TAATCCCTCC,1.16
4,ATTTGGTGCC,1
5,GGCCAAGGT,0.992
6,ACTTGGACAG,1.05
7,CCTATAAGGA,0.997
8,GGTTACGTAA,1.03
9,GGATAAGGG,0.988
10,TAGTAACAGT,1.01
11,AACCACGAGC,1.01
12,GAAGCGTTC,1.38
13,ACTTGGCCGC,1.11
14,CTTAGCTGGG,1.05
15,CATAGTGC,1.07
16,CACTCCTATA,1.11
17,TGTATTGTTT,0.99
18,TAGGGTCGCG,1
19,AACTGCTCGG,0.969
20,AGGGGAAAT,1.36
21,GTGAGTAAAA,1
22,GGGGCGTGGA,0.933
23,ATTGATGCGC,1.04
24,TTTACGTTTA,1.03
25,CTGAGCCCCC,1.26
26,AGCTTCGTAG,1.01

row,Sequence,switch fluorescence ratio
1,AAACCGACTC,2.72
2,GGAAGGGTGC,1.06
3,GTATCTGGGA,0.979
4,CGCGGGGTTG,1.02
5,GGAACGCTGG,1.04
6,AATTGCCTTA,1.01
7,CTGCTTAAGC,0.967
8,CCCTGTCTGT,1.04
9,GGATTTTCTT,0.994
10,AAAGGCAGGG,0.968
11,GGCTGATAGT,0.985
12,GTTTCGAAAG,0.965
13,CGAGTTATAC,1.34
14,GGCGTATGCT,1.04
15,GTTTCCAATG,1.03
16,CTACATAGGC,1.07
17,ATCCGAGGAA,1.03
18,TTCGTGTATA,0.986
19,TTGCGTTTGC,0.971
20,GAGCACCGAC,1.08
21,AGTCCATACT,1.03
22,ATTTTGGGCA,0.999
23,ACTTTGCATA,1.61
24,TAATTCGCCC,1.03
25,GGGTTACCTA,0.973
26,GAGTCGAAAG,0.981

row,Sequence,switch fluorescence ratio
1,ATATCGTATA,1.03
2,ATAGAGAGGC,0.909
3,GATTGCAG,0.992
4,GTTTAAGACG,0.981
5,CGCACATAAG,1.36
6,AGTCAATT,1.04
7,GAGATCACAT,0.971
8,CCGTGATCTC,5.59
9,CTAACTACAA,1
10,AAGTCGTACC,0.974
11,TCGAGGTGT,0.98
12,GGGCGTGGGG,1.03
13,TTTTTTCAAA,1.05
14,TAATTCCACG,1.05
15,TTTGCCCCGC,1.03
16,TTGTATGACA,1.01
17,GGACTACGAC,1.11
18,TGTAAGATGG,0.975
19,GCTAATTTTA,0.969
20,GGACGGCTGG,0.948
21,GTTGCTAGTT,0.995
22,ACATGGCTTG,0.994
23,AGAAGGCTAC,1.01
24,GAATATGTAC,1.14
25,CAGAGAATGA,0.994
26,ATGGGTGA,1.01

row,Sequence,switch fluorescence ratio
1,GTGGTCCTCG,1.01
2,TTGGAACGGA,1.11
3,AGAATTCCTA,0.995
4,TTACAGGCGT,0.99
5,TTACACGTCA,1.19
6,CGCACCTAAA,1.08
7,ATCTCAAACA,1.01
8,ACCGTTCATA,1.07
9,ACTGCGAGTG,1.04
10,GCAACCTCAC,1.74
11,TTATGGTCGT,1.03
12,CTTAACCAGA,0.972
13,GCTAATTCAC,1.09
14,AGCTTTTTTT,0.964
15,ACCGGGCAGG,1.06
16,GTCCTCGCGC,2.27
17,CTGACTTCAA,1.9
18,CGGGCGCGAG,0.981
19,GCTCGAGACT,1.08
20,CCCGCTGGTA,1.14
21,TATCGGGACG,0.962
22,GTGGTTTCGC,1.04
23,CTGGGTCTAG,1.03
24,TCAAAATAAT,1.02
25,TGCGAATGGG,0.996
26,CTGGGCGGAC,1.26

row,Sequence,switch fluorescence ratio
1,CCGCTTTTAG,3.3
2,GTAATGTG,1.05
3,GGGAGTCCCT,1.01
4,TTAACACTAT,1.02
5,ATATGGTACG,1.05
6,AGCCCTTTTC,0.991
7,CAAGTGTAGG,0.976
8,CGGTGCGCGG,1.01
9,GAGAGCTCTT,1.03
10,GTGTTATGTA,0.992
11,CACGTGAACA,1.03
12,TGGATTCACG,0.998
13,TGAGACGTTG,0.998
14,CGTGCAGCCA,1.03
15,GCGGGGTTAG,1.02
16,AAGGTACTAA,1.04
17,TTTGGGCGAT,1.03
18,TAGTGCAATG,1.01
19,CCCTGACAAC,1.28
20,CAAGAATGTT,0.958
21,ACCGATCCGA,1.35
22,TTGAGAGGGC,0.965
23,GCGTTTAGCG,1.02
24,GGGCCCTGCG,0.971
25,GGGATAGGAT,0.987
26,ACCTTTGAAC,1.05

row,Sequence,switch fluorescence ratio
1,TTCTAAGTTT,1.1
2,TTTAAGGTCA,0.991
3,TTTACTCATT,0.989
4,TTTGATCCAA,1.03
5,ATGCGCACTG,1.03
6,TACTGCCCGG,0.948
7,CTGATCGCTG,1.49
8,CTTTCATGCA,0.995
9,CATCGATATT,0.937
10,GTCCGTACTG,1.06
11,GGGGTTAGTA,1.03
12,TGAGGACTCG,0.988
13,ATTTAGGTAT,0.991
14,GAATTTATC,1.01
15,AGGGTGAGAA,0.963
16,GCCAATTTCA,1
17,TACAGAGGGT,1.01
18,TATCCAAACG,1.01
19,TAACTTTAGG,0.992
20,GGGGGCT,1.05
21,GTGTTCTGAC,1.01
22,GCAGTCCGCT,1.17
23,ACGACGGAAA,1.31
24,TCCGAAAATT,0.972
25,GAAGTTTCGG,0.993
26,CCTCCATGAA,3.74

row,Sequence,switch fluorescence ratio
1,ACAATTAAA,1.01
2,GTTAAGAAGA,1.01
3,ATAGCTTAGT,0.983
4,GTTACCAGAT,1.03
5,TGTGATCCC,0.993
6,TGCTAACCGT,1
7,TGATTATCTA,0.973
8,TATAGCAGGA,0.993
9,AGCTATAAA,0.982
10,CTCAAGAGA,1.08
11,TAGCGCATTA,1.15
12,TGCGGAATTA,0.969
13,CTTCAAAGCG,1.09
14,AATGGTCAGG,1.02
15,CGCCTCAAGC,1.44
16,CTCGGCTAGC,1.71
17,CCCTGTATTT,1.05
18,AGTCGATCTG,1
19,TCTCTAAAAG,1.01
20,TGGTCTGGTC,1.01
21,CATGTGTAGG,1.05
22,GGACATGTCA,1
23,GATAGCGAAC,1.59
24,GTGTGGACGG,1
25,TAGGTATAGT,0.97
26,CCATCACGGA,1.05

row,Sequence,switch fluorescence ratio
1,CCTCGGATCC,1.39
2,TGCTTCGCCG,0.98
3,CTCGGTGATG,0.921
4,GATTCATTA,1.01
5,TTATGATCTA,1.02
6,TTAGGGTTGA,1.01
7,ATCCGATTTG,1.05
8,AACGCAAGTT,1.02
9,ACTGAAAGAA,1.58
10,GGTCGTTGGG,0.995
11,TATGAACCCT,1.08
12,CCCTTCCCTC,1.8
13,GCCGATTT,1.07
14,TTGGCTATAT,0.976
15,TACCCGGCGT,0.996
16,ATGATTACAG,1.02
17,GGTCCGTATA,1.1
18,CTTCGCCAGG,4
19,CGGCGACTCA,0.993
